The results in this text go back to article PMC9008427, “Identification of a STIM1 Splicing Variant that Promotes Glioblastoma Growth” (Advanced Science, 2022).

The series concerns the molecule itself. The series can be described thus: SEC; purified recombinant protein on a Superose 6 10/300 GL column, Bio-Rad Gel Filtration Standard as size markers; fractions checked by SDS-PAGE.

B1: (His)6-STIM1([…]) (domain or fragment)
chain: not shown
notes: cytoplasmic domain of human STIM1, […], cloned into pPro-EX-HTb between BamHI and XhoI; also called recombinant STIM1-CT; STIM1-CT; source: E. coli BL21 (DE3), purified (Ni-NTA, gel filtration on Superose 6)
For the protein B1, the binding result is on record as “binds”.
